Measured values published in PMC4336329 (PLoS ONE, 2015).
In all, about 310,000 compounds went through this assay and about 2,200 (0.71%) showed an effect of 50% or more. The effect is printed as a negative number. The list shows a part of the results.

What follows are molecules tested against human ether-à-go-go-related gene (hERG) potassium channel (human, UniProt Q12809) (assay: primary screen, population patch clamp on CHO cells stably expressing hERG).
Chain of human ether-à-go-go-related gene (hERG) potassium channel (Q12809 whole entry, looked up): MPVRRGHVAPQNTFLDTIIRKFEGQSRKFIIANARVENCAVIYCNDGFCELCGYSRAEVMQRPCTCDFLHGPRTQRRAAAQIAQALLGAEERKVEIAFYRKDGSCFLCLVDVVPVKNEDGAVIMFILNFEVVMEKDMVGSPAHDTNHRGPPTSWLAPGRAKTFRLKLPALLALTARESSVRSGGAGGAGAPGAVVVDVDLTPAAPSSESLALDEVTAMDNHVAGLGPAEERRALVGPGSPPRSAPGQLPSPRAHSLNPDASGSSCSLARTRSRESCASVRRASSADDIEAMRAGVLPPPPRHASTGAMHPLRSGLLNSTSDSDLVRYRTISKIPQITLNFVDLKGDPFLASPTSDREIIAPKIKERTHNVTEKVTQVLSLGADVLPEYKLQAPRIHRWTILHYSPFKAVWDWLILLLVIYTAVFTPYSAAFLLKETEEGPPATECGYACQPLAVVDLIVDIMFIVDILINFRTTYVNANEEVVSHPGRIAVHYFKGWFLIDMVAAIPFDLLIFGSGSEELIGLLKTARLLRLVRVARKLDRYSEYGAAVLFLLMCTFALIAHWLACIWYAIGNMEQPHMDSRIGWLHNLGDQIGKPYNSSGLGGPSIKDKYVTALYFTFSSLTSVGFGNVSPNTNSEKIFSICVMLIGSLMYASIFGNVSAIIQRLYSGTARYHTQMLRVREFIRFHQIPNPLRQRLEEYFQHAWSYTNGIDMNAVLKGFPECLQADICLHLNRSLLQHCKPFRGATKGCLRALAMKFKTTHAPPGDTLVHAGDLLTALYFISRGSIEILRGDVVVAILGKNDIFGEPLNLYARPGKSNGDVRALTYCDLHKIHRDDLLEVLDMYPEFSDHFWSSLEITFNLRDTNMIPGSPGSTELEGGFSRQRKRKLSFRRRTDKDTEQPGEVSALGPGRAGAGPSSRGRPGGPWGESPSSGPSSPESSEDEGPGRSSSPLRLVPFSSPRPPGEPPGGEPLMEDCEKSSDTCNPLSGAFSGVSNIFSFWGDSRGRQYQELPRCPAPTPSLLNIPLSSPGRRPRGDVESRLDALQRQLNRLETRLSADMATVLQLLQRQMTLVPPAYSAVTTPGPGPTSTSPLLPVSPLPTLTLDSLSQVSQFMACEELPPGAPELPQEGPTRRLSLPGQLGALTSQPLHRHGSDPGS

SMILES	hERG current change (%, negative = inhibition) at 1uM [%]
CCOC(=O)c1cc(NC(=O)NC2CCCCC2)c(C)nc1C	15.2
CCc1ccc(-c2n[nH]c(=O)c3ccccc23)cc1	7.75
Nc1nc(N2CCCCC2)nc(N(c2ccccc2)c2ccccc2)n1	15.2
COc1ccccc1-c1noc(-c2ccncc2)n1	1.49
Cc1ccccc1S(=O)(=O)N(CC(O)CN1CCCCC1)c1ccccc1 (stereo not shown)	-71.2
COc1ccc(C2=Nn3c(nnc3-c3ccccn3)SC2)cc1	-19.9
CCOCc1nnc(NC(=O)c2cc(OC)c(OC)c(OC)c2)s1	9.69
Cn1nc(C(=O)OCC(=O)c2ccc(Br)cc2)c2ccccc2c1=O	9.84
CCc1cccc(NC(=O)CSc2nnc(Cc3ccc(OC)cc3)c(=O)[nH]2)c1	5.65
COc1ccc(-n2nnc3c(=O)n(Cc4ccccc4C)cnc32)cc1	0.996
Cc1ccc(C(=O)N/N=C\c2ccc([N+](=O)[O-])o2)cn1	13
Cc1cccc(-c2nsc(SCC(=O)Nc3nccs3)n2)c1	16.3
O=C(O)c1cc2n(n1)C(C(F)(F)F)CC(c1ccco1)N2 (stereo not shown)	13.4
Cc1onc(-c2ccccc2Cl)c1C(=O)NC(=S)Nc1ccc(C(C)(C)C)cc1	5.51
CCOc1ccc(NC(=O)CSC2=NN3CCCC(=O)N=C3S2)cc1	15.7
CC(C)CN(CCCNC(=O)CC1Oc2ccccc2NC1=O)CC(C)C (stereo not shown)	2.99
N#CC1=C(N)N(c2ccccc2)C(c2ccccc2)C1(C#N)C#N (stereo not shown)	1.74
COCCCNC(=O)CN(C1CCCCC1)S(=O)(=O)c1ccc(C)cc1	10.4
COc1ccc(/C=C/C=C2\N=C(SC)SC2=O)cc1	15.3
Cc1noc(C)c1C(=O)OCC(=O)NC(c1ccccc1)c1ccccc1	6.25
CCN1C(=S)N[C@@H](CCc2ccccc2)C(C(=O)OC)=C1C	14.4
Cc1nn(-c2ccccc2)c(C)c1/C=C/C(=O)OCC(=O)Nc1ccc(S(N)(=O)=O)cc1	15.7

SMILES	hERG current change (%, negative = inhibition) at 1uM [%]
COc1cc2c(cc1OC)C(c1cc(Br)ccc1F)N(C(=O)CCl)CC2 (stereo not shown)	29.2
S=C(NCCN1CCOCC1)N/N=C/c1c2ccccc2cc2ccccc12	9.38
CC1(C)CC(=O)C(C=NCCO)=C(O)C1	9.26
CSc1ccccc1OCc1cc(C(=O)N(C)C(C)c2ccccn2)no1 (stereo not shown)	-6.89
CS(=O)(=O)c1cccc(C(=O)Nc2cccc(-c3nc4ccccc4[nH]3)c2)c1	-2.8
CCn1c(SCC(=O)NC(C)(C)C)nnc1-c1ccncc1	16.5
CC(=O)c1cccc(CN(C)CC2CCCN(CCc3ccccc3C)C2)c1 (stereo not shown)	10.2
COc1ccc(/C=N/NC(=O)c2[nH]c3ccc(Cl)cc3c2-c2ccccc2)c(C(=O)O)c1OC	11
Cc1ccc(S(=O)(=O)n2ccnc2)cc1C	6.57
O=C1c2ccccc2-c2nnc(-c3ccccc3)cc21	5.64
CC(=O)Nc1c2c(nn1-c1cccc(C)c1)CSC2	6.43
C=CCc1cccc(/C=N/NC(=O)CNc2ccccc2OC)c1O	10.9
COc1ccc(N2CC(C(=O)Nc3nnc(SCC(=O)NCc4ccco4)s3)CC2=O)cc1 (stereo not shown)	14.4
C=CCn1c(SCC(=O)NCCCC)nc2scc(-c3ccco3)c2c1=O	-2.26
O=C(c1ccc(F)cc1)N1CCOC(c2nc(-c3ccc(F)cc3)no2)C1 (stereo not shown)	-6.77
N#C/C(=C\c1c(N2CCN(c3ccccc3)CC2)nc2ccccn2c1=O)S(=O)(=O)c1ccccc1	14.1
CCc1ccc(OCC(=O)NCCc2ccc3c(c2)OCCO3)cc1	7.4
O=C(COc1ccccc1[N+](=O)[O-])N(Cc1ccccc1)c1ccccn1	9.8
CC(=O)c1ccc(N(CC(=O)NC2CCCCC2)C(=O)CNC(=O)c2ccco2)cc1	8.49
COc1ccc(-n2c(/C=C3\C(=O)N(C)c4ccccc43)nc3ccccc3c2=O)cc1	13.6
CC(=O)Nc1ccc(Oc2nc(-c3cccnc3)nc3sc4c(c23)CCCC4)cc1	12.6
Cc1ccc(OCCSc2ncnc3sc(C)c(C)c23)cc1C	3.14

SMILES	hERG current change (%, negative = inhibition) at 1uM [%]
COc1ccc(C(=O)Nn2cnc3ccccc3c2=O)cc1[N+](=O)[O-]	9.23
O=C(COc1nc2ccccc2nc1N1CCOCC1)Nc1cccc(S(=O)(=O)N2CCCCC2)c1	9.03
CCCCN(Cc1cc2cc(OC)ccc2[nH]c1=O)C(=O)c1ccccn1	-13.8
O=C(CN(c1ccc(F)cc1)S(=O)(=O)c1ccccc1)NCCSC1CCCCC1	-0.554
COc1cc(OC)cc(C(=O)Nc2ccccc2-c2nnn(CC(=O)Nc3cc(C)on3)n2)c1	3.04
O=C(N/N=C1/CC2C=CCC12)c1ccco1 (stereo not shown)	0.749
COc1ccc(N(C)S(=O)(=O)c2cccc(C(=O)NC3CCC(C)CC3)c2)cc1 (stereo not shown)	-11.1
COc1ccc(CNC(=O)c2csc(Cc3ccc(OC)cc3)n2)cc1	-3.67
O=C(CNS(=O)(=O)c1ccccc1)Nc1ccc(C(F)(F)F)cc1	-4.14
COc1cc(CC(=O)OCn2nnc3ccccc3c2=O)cc(OC)c1OC	11.9
COCCN1CCN(C(=O)C2CCC(=O)N(Cc3cccc(C(F)(F)F)c3)C2)CC1 (stereo not shown)	-2.67
COc1ccc(Cl)cc1/C=C1/C(=O)ON=C1C	12.5
COC(=O)c1oc2ccc(Br)cc2c1NC(=O)CCN1CCOCC1	-6.66
Cc1nc(CS(=O)(=O)c2ccccc2)cc(Sc2ccc(Cl)cc2Cl)n1	0.355
O=C(Cc1cccs1)N(c1ccc(Br)cc1)C1C=CS(=O)(=O)C1 (stereo not shown)	6.81
C=CCn1cc(/C=C2\SC(N3CCOCC3)=NC2=O)c2ccccc21	13.1
COc1ccc(C)cc1NC(=O)c1cc2ccccc2cc1OCC(=O)NCc1ccco1	3.05
COc1cccc(N(CC(=O)NC2CC3CCC2C3)S(=O)(=O)c2ccccc2)c1 (stereo not shown)	-9.98
Cc1cc(=O)oc2cc(NC(=O)C(CCCN=C(N)N)NC(=O)OCc3ccccc3)ccc12 (stereo not shown)	11
CN(CC(=O)Nc1ccc(F)cc1)C(=O)COC(=O)/C=C/c1ccccc1[N+](=O)[O-]	-7.91
Cc1cc(Cl)ccc1-n1c(-c2cccnc2)n[nH]c1=S	9.62
Cc1ccc(NC(=O)COc2ccc(/C(N)=N/O)cc2)cc1C	3.34

SMILES	hERG current change (%, negative = inhibition) at 1uM [%]
CS(=O)(=O)N(CC(=O)Nc1cccc(Cl)c1)c1ccccc1Cl	-1.27
Cc1cc(/C=N/NC(=O)c2cccs2)c(C)n1-c1cnccn1	10.1
COc1ccc([N+](=O)[O-])cc1N(CC(=O)N1CCN(Cc2ccccc2)CC1)S(C)(=O)=O	9.95
COCCCN1CC(=O)N2C(c3cccc(OC)c3OC)c3[nH]c4ccccc4c3C[C@H]2C1=O (stereo partly shown)	9.98
CCOC(=O)N1CCC(N(CCCOC)C(=O)Nc2cccc(OC)c2)CC1	5.59
CCc1ccc(C(=O)O)cc1	11.5
COc1ccccc1CNC(=O)COC(=O)CCC(=O)c1cccs1	11.5
COc1cccc(C2NC(c3cccc(OC)c3O)C(C)C(=O)C2C)c1O (stereo not shown)	-2.36
Cc1cccnc1NC(=O)CNC(=O)C12CC3CC(CC(Cl)(C3)C1)C2	12.7
Cc1cccc(NC(=O)CCSc2ccccn2)c1	6.01
COC(=O)c1c(C)oc(C)c(C(=O)OC)c1=O	1.88
Cc1cc(C)n(C(=O)CSc2nc3ccccc3o2)n1	9.56
Cc1ccccc1C(=O)NNc1ccc([N+](=O)[O-])cc1	-10.6
Cc1ccc(S(=O)(=O)N2CCC(=O)N(CCOC(=O)Nc3cccc(Cl)c3)CC2)cc1	-4.62
Nc1ccc(-c2cnc(-c3ccc(N)cc3)nc2)cc1	12.2
CC1Cc2ccccc2N1C(=O)CCNS(=O)(=O)c1ccc2c(c1)CCC(=O)N2 (stereo not shown)	-11.8
Cc1ccc(C(=O)Nc2nc3nc(-c4ccccc4)cc(=O)n3[nH]2)cc1	14.5
CC(=O)c1ccc(OCC(O)CN(C)Cc2cccs2)cc1 (stereo not shown)	4.2
C=CCn1c(N)c(C(=O)NCc2cccnc2)sc1=S	-7.2
CCCN(C(=O)CCNC(=O)c1ccc(Cl)cc1)c1c(N)n(Cc2ccccc2)c(=O)[nH]c1=O	6.13
CCCS(=O)(=O)c1nc(S(=O)(=O)c2ccc(C)cc2)c(NCCCN2CCOCC2)s1	7.31
O=C(Nc1cccc2ncccc12)c1ccc(F)cc1	13.7
